Reference: PubChem BioAssay AID1745853 (National Center for Advancing Translational Sciences (NCATS), 2022)
Values joined by “and” are separate entries in the source; they are usually repeats but may differ in a detail not shown here. Equal values may be shown once. The list shows a part of the results. Further columns of the screen follow, without active or inactive calls.

Tests used:
Experiment in all cases: Primary Screen for Target Class Profiling of Small Molecule Inhibitors of Methyltransferases
[1] = target: Glycine N-methyltransferase (Homo sapiens) (UniProt Q14749); details: purified enzyme, MTase-Glo SAH luminescence; measured here: GNMT inhibition; at 40 µM; stronger effect = lower value
How it was run: (§1)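 Each enzyme was assayed with SAM and its substrate. SAH formation detected by MTase-Glo luminescence; single-point 40 uM screen[…].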

[2] = target: Guanidinoacetate N-methyltransferase (Homo sapiens) (UniProt Q14353); details: purified enzyme, MTase-Glo SAH luminescence; measured here: GAMT inhibition; at 40 µM; stronger effect = lower value
How it was run: as §1

[3] = target: Histamine N-methyltransferase (Homo sapiens) (UniProt P50135); details: purified enzyme, MTase-Glo SAH luminescence; measured here: HNMT inhibition; at 40 µM; stronger effect = lower value
How it was run: as §1

[4] = target: Nicotinamide N-methyltransferase (Homo sapiens) (UniProt P40261); details: purified enzyme, MTase-Glo SAH luminescence; measured here: NNMT inhibition; at 40 µM; stronger effect = lower value
How it was run: as §1

[5] = target: Phenylethanolamine N-methyltransferase (Homo sapiens) (UniProt P11086); details: purified enzyme, MTase-Glo SAH luminescence; measured here: PNMT inhibition; at 40 µM; stronger effect = lower value
How it was run: as §1
% is set by controls: 0 for no effect and ±100 for the full control effect.

SMILES	activity change, negative = inhibition [1] [%]	activity change, negative = inhibition [2]	activity change, negative = inhibition [3] [%]	activity change, negative = inhibition [4]	activity change, negative = inhibition [5]
CCC(C)NC(=O)c1ccc2c(=O)n(C)c3nnc(SCC(=O)Nc4ccccc4OC)n3c2c1 (centres undefined)	3.93	0%	2.43	4.82%	0.656%
C=CCNC(=O)C(NC(=O)c1cccs1)C1CCN(C(=O)c2ccc(F)cc2)CC1 (centres undefined)	-6.08	2.4%	0.825	-1.92%	8.2%
CN(C)c1ccc(C(=O)N2CCN3C(=O)N(CC(N)=O)C(=O)[C@@H]3C2)cc1	0.15	0.513%	2.1	-3.63%	1.85%
CCN1C(=O)c2cc(C(=O)NCc3ccc(OC)cc3OC)nn2CC1(C)C(=O)NC1CCCC1 (centres undefined)	5.15	0.586%	4.6	-4.81%	4.33%
Cc1ccccc1N1C(=O)c2cc(-c3cccs3)nn2CC1(C)C(=O)NC1CCCCCC1 (centres undefined)	-9.41	0%	-3.27	-1.24%	-4.12%
CN(C)CCOc1cc(-c2cn[nH]c2)ccc1NC(=O)C1COc2ccccc2O1 (centres undefined)	-0.674	0.484%	-6.3	-17.1%	0.887%
COc1cccc(N2CCN(C(=O)CCc3nnc4n(Cc5ccc(C)cc5)c(=O)c5ccccc5n34)CC2)c1	-1.24	0%	-0.495	-9.17%	-8.87%
CC1(NC(=O)c2ccc(C#Cc3cccc(F)c3)cn2)COC1	-2.35	-1.9%	0.675	-40.9%	-4.31%
COCCCNC(=O)c1ccc2nnc(Cc3ccc(Cl)cc3)n2c1	-8.41	-7.67%	-17	-8.53%	-4.15%
O=c1c2ccccc2n2c(=O)n(Cc3ccc(Cl)cc3)nc2n1CCc1ccccc1	-4.61	-6.73%	7.75	-12%	-5.45%
O=C(NC1CCCC1)N1CCCC(C(=O)N2CCC(c3nc4ncccc4[nH]3)C2)C1 (centres undefined)	-6.97	-6.21%	-6.52	-14.6%	6.01%
CCCn1cc(NC(=O)C[C@H]2NC(=O)c3ccccc3NC2=O)c(C)n1	-4.83	-6.71%	-2.52	-11.4%	-18.4%
NCCCCN	4.29	10.3%	6.4	-9.08%	-3.15%
COc1cc2c(c(OC)c1CC=C(C)C)C[C@H](c1ccc(O)cc1O)CO2	-4.58	3.01%	1.47	-10.7%	-7.82%
Cc1ccc(C(=O)Cn2nc3n(Cc4ccccc4)c(=O)c4ccccc4n3c2=O)cc1	-8.49	1.6%	-0.776	-6.44%	-4.04%
CCc1ccc(CN2C(=O)c3cc4ccccc4n3CC2(C)C(=O)NCc2ccccc2)cc1 (centres undefined)	-0.924	4.12%	3.37	-7.5%	-2.25%
CC[C@@H]1C(=O)N(C)c2cnc(Nc3ccc(C(=O)NC4CCC(N5CCN(CC6CC6)CC5)CC4)cc3OC)nc2N1C(C)C (some centres undefined)	-32.8	-8.54% and -11.7%	-37.2	-46.2% and -45%	-28.1% and -29%
O=C([C@@H]1CNC[C@H](C(=O)N2CCN(c3nccs3)CC2)C1)N1CCCC1	-6.6	-9.63%	-3.91	-16.5%	-24.1%
Cc1nnc2n1CCC(NS(=O)(=O)c1ccccc1F)CC2 (centres undefined)	-4.29	-0.949%	-2.56	-2.99%	7.28%
O=C(C=CC#Cc1cccc(NS(=O)(=O)c2ccccc2)c1)NO	-4.58		-0.422	8.85%	38.9%

SMILES	activity change, negative = inhibition [1] [%]	activity change, negative = inhibition [2]	activity change, negative = inhibition [3] [%]	activity change, negative = inhibition [4]	activity change, negative = inhibition [5]
Cn1c(=O)c2ccc(C(=O)NC3CCCC3)cc2n2c(SCC(N)=O)nnc12	-0.376	0%	11.7	0.356%	7.11%
Cc1ccc(CNC(=O)N2CCCC(c3nn[nH]n3)C2)cc1 (centres undefined)	-0.154	3.17%	3.07	-7.88%	5.07%
Cc1ccccc1C(=O)Nc1ccc(C(=O)N2CCCC(N(C)C)c3ccccc32)cc1 (centres undefined)	-1.18	6.07%	-28.7	-15%	-0.709%
O=C(NC1CCCN(c2ccc3nnc(-c4ccccc4)n3n2)C1)c1ccc(F)cc1 (centres undefined)	-4.36	1.54%	1.47	-1.76%	4.33%
Cc1cccc(-c2[nH]ncc2-c2ccc3ncccc3n2)n1	-6.24	-0.545%	-2.62	-11.3%	-5.13%
CCCN1C(=O)c2c(C(=O)NCc3ccccc3OCC)ncn2CC1(C)C(=O)NCc1ccc(OC)cc1 (centres undefined)	-1.09	0%	2.56	7.15%	8.59%
Cc1ccc(CCNC(=O)CCc2nnc3n(Cc4ccc(F)cc4)c(=O)c4ccccc4n23)cc1	-10.4	4.04%	-1.96	-12%	-2.62%
Cn1c(=O)n(C)c2cc(S(=O)(=O)Nc3cccc(C(F)(F)F)c3)ccc21	-3.31	2.8%	2.87	5.41%	-2.42%
C=C1CC2OC(=O)C(=C)C2C(OC(=O)/C(C)=C\C)CC2(C)OC1=CC2=O (centres undefined)	3.16	7.96%	8.97	-1.85%	8.72%
N#Cc1cccc(-c2cn3c(n2)N(C(=O)c2ccccc2F)CCC3)c1	-6.13	-1.15%	-26.9	-12.6%	-4.19%
COc1cc(C2Oc3c(O)cc(CCCO)cc3C2CO)ccc1O[C@H]1O[C@H](C)[C@@H](O)[C@H](O)[C@@H]1O (some centres undefined)	1.09	9.3%	7.84	-4.4%	6.76%
COc1coc(C(=O)NCCC2CN(c3cnn(C)c(=O)c3)CCO2)cc1=O (centres undefined)	-4.67	-6.96%	-2.98	-12.1%	-4.77%
Cc1ccc(CN2C(=O)c3c(-n4cccc4)c4cc(C)ccc4n3CC2(C)C(=O)NC2CCC(C)CC2)cc1 (centres undefined)	-2.15	-6.85%	3.53	-2.55%	1.99%
O=C(NCCc1ccccn1)c1ccc(OC2CCNCC2)nc1	-1.34	-2.23%	1.62	0.808%	1.5%
COc1ccc(OC)c(CNS(=O)(=O)c2ccc3[nH]c(=O)[nH]c3c2)c1	15.7	2.79%	11.9	6.62%	6.1%
Cc1ccc(CN2CC(N(CC3CC3)C3CCOCC3)C2)cc1	-1.27	-0.53%	1.86	-1.28%	0.8%
COc1ccccc1CNC(=O)C1c2c(n(C)c3ccccc23)SCC(=O)N1c1ccc(F)cc1 (centres undefined)	5.12	0.332%	-2.34	-4.91%	0.833%
CC1(C(=O)NCc2ccccc2)Cc2ccccc2C(=O)N1Cc1cccc(Cl)c1 (centres undefined)	0.648	2.01%	0.66	-2.31%	-2.45%
CCOC(=O)c1cc2n(n1)CC(C)(C(=O)NCc1ccccc1)N(c1ccc(F)cc1)C2=O (centres undefined)	-0.657	4.37%	0.729	0.234%	-0.515%
C=C(C(=O)OC)C1C(O)CC2(C)C(O)CCC(=O)C2C1O (centres undefined)	-5.27	-2.02%	6.23	-15.7%	-11.4%

SMILES	activity change, negative = inhibition [1] [%]	activity change, negative = inhibition [2]	activity change, negative = inhibition [3] [%]	activity change, negative = inhibition [4]	activity change, negative = inhibition [5]
O=C(NCc1ccc2c(c1)OCO2)c1ccc2c(=O)nc3c(-c4ccccc4)n[nH]n3c2c1	-5.97	0%	5.48	2.03%	-0.139%
CC(C)n1cnc2c(NCCc3ccc(O)cc3)nc(-c3csc4ccccc34)nc21	0.535	-6.26%	-2.67	-21.7%	-4.98%
CC1(C(=O)NC2CCCC2)Cn2c(ccc2-c2ccco2)C(=O)N1c1ccc(Cl)cc1 (centres undefined)	-4.47	1.45%	-0.492	1.9%	-2.31%
CCCn1c(=O)c2ccc(C(=O)NCC(C)C)cc2n2c(SCC(=O)Nc3cc(C)cc(C)c3)nnc12	2.7	0%	6.12	-6.81%	5.33%
CCCn1c(=O)c2ccc(C(=O)NCC(C)C)cc2n2c(SCC(=O)Nc3ccccc3F)nnc12	1.75	4.9%	2.37	-8.52%	-1.66%
Cc1ccccc1NC(=O)CSc1nnc2n(C)c(=O)c3ccc(C(=O)NC4CCCC4)cc3n12	-3.62	2.97%	-2.96	-5.56%	-0.729%
N#Cc1cccc(C(=O)N2CCCCC2CCn2cc(-c3ccccc3)nn2)c1 (centres undefined)	-7.22	-11.9%	-4.13	-10.3%	-6.79%
CCC(C)NC(=O)c1ccc2c(=O)n(CCC(C)C)c3nn(CC(=O)c4ccc(OC)cc4)c(=O)n3c2c1 (centres undefined)	1.87	0%	7.21	0.776%	1.72%
COC(=O)C1=CO[C@@H](O[C@@H]2O[C@H](CO[C@@H]3O[C@H](COC(=O)/C=C/c4cc(OC)c(O)c(OC)c4)[C@@H](O)[C@H](O)[C@H]3O)[C@@H](O)[C@H](O)[C@H]2O)[C@@H]2C(CO)=CC[C@H]12	5.16	4.96%	13.8	-9.66%	7.71%
Cc1ccc(CNC(=O)Cn2nc3n(C)c(=O)c4ccc(C(=O)NCC(C)C)cc4n3c2=O)cc1	3.56	0.015%	4.96	3.93%	5.81%
O=C(O)CCNS(=O)(=O)c1ccc2[nH]c(=O)[nH]c2c1	1.55	0%	9.44	11.5%	2.31%
CCCCN1C(=O)c2cc(C(=O)Nc3ccc(C)cc3Cl)nn2CC1(C)C(=O)NC1CCCC1 (centres undefined)	2.79	0.6%	-10.1	4.13%	2.77%
COc1ccc(C2(O)c3ccccc3NC(=O)C2OC)cc1 (centres undefined)	3.24	2.63%	6.95	-10.5%	1.45%
COc1ccc(N(C(=O)c2ccccc2F)S(=O)(=O)c2ccc3c(c2)n(C)c(=O)n3C)cc1	-2.07	3.71%	-0.655	0.46%	-1.51%
CC1OC(OC2C(C)OC(OC3C(O)C(CO)OC(O[C@H]4CC[C@@]5(C)C(CC[C@]6(C)C5CC=C5C7[C@@H](C)[C@H](C)CC[C@]7(C(=O)O)CC[C@]56C(=O)O)C4(C)C)C3O)C(O)C2O)C(O)C(O)C1O (some centres undefined)	-2.1	-1.99%	1.93	-13.8%	1.92%
CCc1ccccc1N1C(=O)c2cc(-c3ccc(OC)cc3)nn2CC1(C)C(=O)NCc1ccccc1 (centres undefined)	2.33	1.08%	2.19	4.36%	-4.57%
Cc1ccccc1N1C(=O)c2cc3sccc3n2CC1(C)C(=O)NC1CCCCC1C (centres undefined)	1.78	1.06%	5.48	1.44%	1.75%
CC1(C(=O)NCc2ccc(F)cc2)Cn2cnc(C(=O)NCCc3cccs3)c2C(=O)N1C1CC1 (centres undefined)	3.08	2.44%	14.4	4.74%	9.56%
